Measured values published in PubChem BioAssay (NCATS).
This is one part of the list. These are further read-outs of the screen, such as a control signal, another cell line or another target. No call is given for them. The list favours compounds with an active or inconclusive main result. Words in brackets tell the shape of the fitted curve; partial curves, single points and poor fits give uncertain potencies.

These compounds were tested against Catechol O-methyltransferase (Homo sapiens) (UniProt P21964) (assay: Confirmatory Screen for Target Class Profiling of Small Molecule Inhibitors of Methyltransferases (AID 1745852;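 further: inhibitor potency for blocking SAH production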)). Details: MTase-Glo luminescence, SAH detection, recombinant enzyme; measured here: COMT inhibition potency.
Sequence of UniProt P21964 (P21964 whole entry, looked up): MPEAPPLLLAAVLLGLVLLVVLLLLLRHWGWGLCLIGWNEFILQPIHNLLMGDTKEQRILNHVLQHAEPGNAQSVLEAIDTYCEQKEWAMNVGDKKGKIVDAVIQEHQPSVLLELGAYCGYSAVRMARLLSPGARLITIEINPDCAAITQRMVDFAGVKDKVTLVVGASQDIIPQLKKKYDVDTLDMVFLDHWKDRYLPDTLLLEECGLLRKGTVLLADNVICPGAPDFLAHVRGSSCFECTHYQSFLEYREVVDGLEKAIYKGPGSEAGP
Tags describe the fitted curve by direction and shape.

**Q.** How did the IC50 turn out when `COc1ccc(-c2nnn3c2nc(N2CCOCC2)c2ccccc23)cc1` was run?
**A.** 21.5 µM [falling, partial curve]

**Q.** For `COc1cc2c(cc1-c1c(C)noc1C)ncc1[nH]c(=O)n(C(C)c3ccccn3)c12` (stereo not given), which IC50 is on record?
**A.** 21.7 µM [falling, partial curve]

**Q.** With `CC1(CO)CC(O)C2(C)CCC3(C)C(=CCC4C5(C=O)CCC(OC6OC(C(=O)O)C(O)C(O)C6OC6OC(C(=O)O)C(O)C(O)C6O)C(C)(C)C5CCC43C)C2C1` (stereo not given) as the compound, how does the IC50 read?
**A.** 2.57 µM [falling, partial curve]

**Q.** Which IC50 does the source give for `O=C(O[C@@H]1O[C@H](CO)[C@@H](O)[C@H](O)[C@H]1O)c1c(O)cc(O)cc1/C=C/c1ccccc1` here?
**A.** 2.1 µM [falling, full curve]

**Q.** How did the IC50 turn out when `O=c1cc(O)cc(/C=C\c2ccc(O)c(O)c2)o1` was run?
**A.** 1.72 µM [rising, full curve]

**Q.** With `CN(C)CCCCCCNC(=O)c1cccc(-c2cc(O)c3ncccc3c2)c1` as the compound, how does the IC50 read?
**A.** 3.43 µM [falling, full curve]

**Q.** `COc1ccc(-c2nc3ccncc3[nH]2)cc1` was tested. Which IC50 did it give?
**A.** 17.5 µM [falling, partial curve]

**Q.** For `c1nc(NCC2CCOC2)c2cc(-c3ccc4c(c3)OCO4)ccc2n1` (stereo not given), which IC50 is on record?
**A.** 27.1 µM [falling, single point]

**Q.** For `CCCc1cc2c(-c3ccccc3)cc(=O)oc2cc1OCc1ccc(C(=O)O)o1`, which IC50 is on record?
**A.** 24.1 µM [falling, partial curve]

**Q.** `CC[N+]1(C/C2=C/CCCCCC2)CCC(NC(=O)C2c3cc(Cl)ccc3Oc3ccc(Cl)cc32)CC1` (stereo not given) was tested. Which IC50 did it give?
**A.** 21.5 µM [falling, partial curve]

**Q.** For `CN(Cc1cccs1)c1ncnc2ccc(-c3ccc4c(c3)OCO4)cc12`, which IC50 is on record?
**A.** 10.8 µM [falling, full curve]

**Q.** `COc1cc(C2Oc3c(OC)cc(/C=C/C(=O)OC[C@H]4O[C@@H](OC(C)(C)C(=O)O)[C@H](O)[C@@H](O)[C@@H]4O)cc3C2CO)ccc1O` (stereo not given in full) was tested. Which IC50 did it give?
**A.** 5.69 µM [falling, partial curve]

**Q.** How did the IC50 turn out when `Oc1cc(CNC(=S)/C=C/c2cc(O)c(O)c(Br)c2)cc(O)c1O` was run?
**A.** 27.1 µM [falling, partial curve]

**Q.** `CC1(C)CC[C@]2(C(=O)O[C@@H]3O[C@H](CO)[C@@H](O)[C@H](O)[C@H]3O)CC[C@]3(C)C(=CCC4[C@@]5(C)CC[C@H](O[C@@H]6O[C@H](C(=O)O)[C@H](O)[C@H](O)[C@H]6O)C(C)(C)C5CC[C@]43C)[C@@H]2C1` (stereo not given in full) was tested. Which IC50 did it give?
**A.** 5.69 µM [falling, partial curve]

**Q.** `O=C1NC(=O)C(c2c[nH]c3ccccc23)=C1c1c[nH]c2ccccc12` was tested. Which IC50 did it give?
**A.** 27.3 µM [falling, partial curve]
